Data taken from PubChem BioAssay AID488969 (Vanderbilt High Throughput Screening Facility, 2010).
In all, about 110,000 compounds were measured (“z-score”: median about -0.1, highest 2% from about 2 on). This is one part of the list. Active and inactive are the calls of the source.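 The calls were made as follows: active = z-score in the third read window above 3 or below -3; inactive = the rest.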

The molecules below were run against Metabotropic glutamate receptor 8 (Rattus norvegicus) (UniProt P70579) (assay: rat mGluR8 modulators via GIRK flux, primary screen, cell-based, thallium flux, HTS (AID 488969)). Settings: HEK293 rat mGluR8, GIRK (G protein-gated inwardly rectifying potassium channel) thallium flux, FluoZin2; at 10 µM; stronger effect = higher value; submaximal glutamate (EC20) added with thallium.
UniProt P70579, sequence (P70579 whole entry, looked up): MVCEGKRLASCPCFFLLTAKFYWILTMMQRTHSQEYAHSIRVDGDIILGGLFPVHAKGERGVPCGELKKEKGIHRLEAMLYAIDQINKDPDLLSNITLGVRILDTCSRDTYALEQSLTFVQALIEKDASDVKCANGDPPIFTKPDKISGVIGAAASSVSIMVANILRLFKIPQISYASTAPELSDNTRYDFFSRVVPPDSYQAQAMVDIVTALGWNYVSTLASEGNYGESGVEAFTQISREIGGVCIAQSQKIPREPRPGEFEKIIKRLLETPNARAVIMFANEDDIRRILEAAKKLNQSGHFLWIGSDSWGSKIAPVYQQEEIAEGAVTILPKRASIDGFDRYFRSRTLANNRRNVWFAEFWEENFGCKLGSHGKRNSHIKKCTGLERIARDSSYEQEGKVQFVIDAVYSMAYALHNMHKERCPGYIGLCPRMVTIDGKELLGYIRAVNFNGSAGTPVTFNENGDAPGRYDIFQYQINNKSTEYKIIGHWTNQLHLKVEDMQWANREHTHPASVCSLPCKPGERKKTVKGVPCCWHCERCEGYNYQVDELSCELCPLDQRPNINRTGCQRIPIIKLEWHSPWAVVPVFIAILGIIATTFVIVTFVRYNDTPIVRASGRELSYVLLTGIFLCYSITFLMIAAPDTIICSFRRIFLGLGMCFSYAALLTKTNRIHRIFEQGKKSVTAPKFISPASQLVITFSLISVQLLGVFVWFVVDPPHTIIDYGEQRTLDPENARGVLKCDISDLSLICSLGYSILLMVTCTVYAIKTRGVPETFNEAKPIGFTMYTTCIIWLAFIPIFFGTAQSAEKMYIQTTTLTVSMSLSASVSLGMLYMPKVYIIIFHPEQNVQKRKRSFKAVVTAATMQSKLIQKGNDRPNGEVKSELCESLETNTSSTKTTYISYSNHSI
For `Cc1nn2c3ccccc3n(Cc3ccccc3)c2nc1=O`, the z-score was -1.33.
Molecule `NC1=NC(=O)C(Cc2cc(Cl)ccc2Cl)S1` (stereo not drawn) has a z-score of -0.00308.
With `COC(=O)C1=C(C)N=c2s/c(=C/c3cccs3)c(=O)n2C1c1ccc(F)cc1` (stereo not drawn) the z-score was -0.323.
For `Cc1ccccc1NC(=S)N(C)CCc1ccccn1`, the z-score was 0.507.
Molecule `c1ccc2c(c1)ncn2Cc1nnc2sc(-c3ccc4c(c3)OCO4)nn12` has a z-score of 0.0378.
Work on `O=C(NCc1ccccc1)c1cc2ccccc2o1` yielded a z-score of 0.323.
For `COc1ccc(S(=O)(=O)Nc2ccc(S(=O)(=O)N3CCCCC3)cc2)cc1C`, the z-score was 0.0459.
`CC(=O)Nc1cccc(Oc2ncnc3scc(-c4ccccc4)c23)c1` gave a z-score of -0.355.
`CN1CCc2c(sc3ncn4nc(-c5ccccc5O)nc4c23)C1` gave a z-score of -0.798.
For `CCC(C)NS(=O)(=O)c1ccc(OC)c(Cl)c1Cl` (stereo not drawn), the z-score was -0.769.
`O=C(Nc1ccc2nn(-c3ccccc3)nc2c1)c1ccc2c(c1)OCO2` gave a z-score of 1.29.
Work on `CN(CC(=O)O)Cc1nc2ccccc2[nH]1` yielded a z-score of -0.0882.
`CN1CCc2nc3ccc(Cl)cc3c(-c3ccccc3Cl)c2C1` gave a z-score of -0.219.
With `Cc1occc1C(=O)Nc1cccc(C(F)(F)F)c1` the z-score was -1.96.
For `NC1=NC(=Nc2ccc(Br)cc2)c2ccccc21`, the z-score was -0.399.
`O=c1oc(-c2cc3ccccc3o2)nc2sc3c(c12)CCCC3` gave a z-score of -0.0681.
For `O=P(O)(O)c1ccccc1OCCCCCOc1ccccc1P(=O)(O)O`, the z-score was -0.265.
In the case of `CCn1c2ccccc2c2nnc(SCC(N)=O)nc21`, the z-score is reported as 0.168.
For `COc1ccc(N=Nc2nc3cc(Br)c(Br)cc3n2C)c(OC)c1`, the z-score was -0.125.
In the case of `COc1ccc(N2Cc3ccccc3C2=NC(=O)c2cccc([N+](=O)[O-])c2)cc1`, the z-score is reported as -1.56.
`O=C(Cn1ncc(Cl)c(Cl)c1=O)NCC1CCCCC1` was tested, and the z-score was 0.189.
For `O=C(NC1=NCCS1)C1COc2ccccc2O1` (stereo not drawn), the z-score was 0.94.
Work on `O=S(=O)(c1ccc(F)cc1)n1ccc(-c2cnc(-c3ccccc3)s2)n1` yielded a z-score of -0.172.
`CCOCC(=O)Nc1cc(C(F)(F)F)ccc1Oc1cccc(Br)c1` showed a z-score of -0.288.
`N#Cc1c(C(F)(F)F)cc(-c2ccc(Cl)c(Cl)c2)nc1SCCN1CCOCC1` gave a z-score of 0.851.
`O=C(COc1ccccc1)NNc1c2ccccc2nc2ccccc12` was tested, and the z-score was -0.159.
With `Cc1ccc(C)c(N=C2CCCN2Cc2ccccc2)c1C#N` the z-score was active: -3.64.
Molecule `COc1cc2c(cc1OC)C1=C(C#N)CC/C(=N\S(=O)(=O)c3ccccc3)N1CC2` has a z-score of 0.0414.
In the case of `CC(C)CN(CC(C)C)C(=O)C12CCC(C)(C(=O)C1)C2(C)C` (stereo not drawn), the z-score is reported as -0.226.
Work on `O=C(Nc1ccc(N2CCCC2)cc1)c1cccc(F)c1` yielded a z-score of 0.0251.
`COCc1nnc(NC(=O)c2ccc(S(=O)(=O)N(C)c3ccccc3)cc2)o1` gave a z-score of 0.784.
For `Cc1occc1C(=O)Nc1ccccc1C(=O)O`, the z-score was -0.185.
Molecule `O=S(=O)(c1ccc(Cl)cc1)N1CCCC1c1nc2ccccc2s1` (stereo not drawn) has a z-score of 0.0454.
For `CC(C)[C@H](NC(=O)CCn1nnc2ccccc2c1=O)C(=O)O`, the z-score was 1.37.
Work on `O=C(Nc1nccs1)C1C2CC3OC(=O)C1C3C2` (stereo not drawn) yielded a z-score of -0.0742.
For `CC1(C)CC(=O)C(C(=O)Cc2ccccc2[N+](=O)[O-])C(=O)C1`, the z-score was 0.541.
In the case of `Cc1ccc(CN2CC(C(=O)Nc3cccc(S(=O)(=O)N4CCCCC4)c3)CC2=O)cc1` (stereo not drawn), the z-score is reported as -0.00131.
In the case of `S=C(NCc1ccco1)N1CCN(C(c2ccccc2)c2ccccc2)CC1`, the z-score is reported as -0.178.
`O=C(CN1CCN(Cc2ccc(F)cc2Cl)C1=O)NCCCN1CCOCC1` showed a z-score of 0.204.
`CC(Sc1ccc(Cl)cc1)C(=O)NCc1ccc2c(c1)OCO2` (stereo not drawn) was tested, and the z-score was 0.0378.
Molecule `O=C(Nc1ccccc1C(=O)O)c1cncc(Br)c1` has a z-score of -0.638.
`CC(Cl)C(=O)NC(=O)NC12CC3CC(CC(C3)C1)C2` (stereo not drawn) gave a z-score of -0.274.
Work on `Cc1nn(CC(=O)O)c(C)c1C` yielded a z-score of 0.21.
`Fc1ccc(COc2ccccc2CNCc2ccncc2)cc1` gave a z-score of -0.0876.
With `O=C(O)Cn1nc(C(F)(F)F)c2c1CCC2` the z-score was 0.0388.
With `CCCCCn1c(CCNC(=O)CCC)nc2ccccc21` the z-score was -0.563.
`CC1=NN(c2ccccc2)C(=O)C1c1ccccc1` (stereo not drawn) was tested, and the z-score was -0.183.
Molecule `CC(C)Sc1nc(N2CCOCC2)c2c3c(sc2n1)COC(C)(C)C3` has a z-score of -0.0382.
Work on `C=CCn1c(SCc2c(Cl)cccc2Cl)nnc1-c1cccnc1` yielded a z-score of -0.0853.
For `CN(Cc1cc2ccccc2[nH]c1=O)S(=O)(=O)c1ccccc1`, the z-score was -0.137.
`O=C(NCCCN1CCOCC1)c1ccccc1` gave a z-score of 0.0111.
For `COc1ccc(OC)c(C2C(C(=O)c3cc4ccccc4o3)=C(O)C(=O)N2c2cc(C)on2)c1` (stereo not drawn), the z-score was active: -4.54.
`CCC(c1nnc(SCC(=O)Nc2cc(Cl)ccc2C#N)n1C1CCCCC1)N(C)C` (stereo not drawn) showed a z-score of 0.00636.
`c1ccc(Oc2cccc(OCCn3cncn3)c2)cc1` was tested, and the z-score was -0.00817.
`Cc1cccc(C(=O)Nc2ccccc2N2CCN(c3ccc(F)cc3)CC2)c1` showed a z-score of 0.0619.
`Fc1ccc(/C=N/c2c(-c3ccc(F)cc3)nc3n2CCS3)cc1` showed a z-score of -0.335.
Work on `O=C(CCS(=O)(=O)c1ccc(Br)s1)NCc1cccs1` yielded a z-score of 1.21.
Molecule `Cc1cc(C)cc(N2CC(C(=O)O)CC2=O)c1` (stereo not drawn) has a z-score of -0.377.
In the case of `CC(C)(C)NC(=O)Cn1c(=O)oc2cc(S(=O)(=O)N3CCc4ccccc43)ccc21`, the z-score is reported as -0.202.
`Cc1cccc(OP(=O)(Nc2c(C)n(C)n(-c3ccccc3)c2=O)Oc2cccc(C)c2)c1` was tested, and the z-score was -0.0461.
Work on `Cc1cc(C)cc(NS(=O)(=O)c2ccc(NC(=O)C3CCCCC3C(=O)O)cc2)c1` (stereo not drawn) yielded a z-score of 0.055.
`O=C(N/N=C/C1C(c2ccccc2)C1(Cl)Cl)c1cccc(Cl)c1` (stereo not drawn) was tested, and the z-score was 0.273.
For `C/C(N)=C(/C#N)C(=O)CSc1nnc(-c2ccc(OC(F)F)cc2)o1`, the z-score was -0.443.
`O=C(NCC1CCCO1)c1cnn2c1NC(c1ccccc1)CC2C(F)(F)F` (stereo not drawn) was tested, and the z-score was -0.121.
`CSCCC1C(=O)OC2(C)CC(C)(C)NC(=S)N12` (stereo not drawn) showed a z-score of 0.49.
With `CC(C)(C)c1csc(SCC(=O)Nc2ccc(Cl)cn2)n1` the z-score was -0.244.
For `CN1/C(=C/C=C(/C#N)C(N)=O)C(C)(C)c2ccccc21`, the z-score was -0.198.
`Cc1ccnc(SCCn2c(N3CC(C)CC(C)C3)nc3c2c(=O)n(C)c(=O)n3C)n1` (stereo not drawn) showed a z-score of 0.0782.
`Cc1nc2c(-c3ccc(F)cc3)c(C)nn2c(C)c1CCC(=O)N1CCN(c2ccccn2)CC1` gave a z-score of -0.51.
`COc1ccccc1NC1=C(Cl)C(=O)N(C2CCCCC2)C1=O` was tested, and the z-score was -0.186.
`Cn1cc(C(=O)c2ccc(Cl)cc2Cl)cc1C(=O)O` was tested, and the z-score was -0.33.
Molecule `C=C(C)CC(NCc1ccco1)c1ccc(OC)cc1` (stereo not drawn) has a z-score of 0.143.
In the case of `Cc1ccc(N2CCN(C3=NC(=O)/C(=C\c4cn[nH]c4-c4ccccc4)S3)CC2)cc1`, the z-score is reported as -2.16.
